Laboratory results: the supplement of paper PMC3334620
In all, about 33,000 sequences were measured (“E-score (-0.5 to 0.5)”: median about -0.013, highest 2% from about 0.3 on). The list shows a part of the results.

Molecular target: T1, Msn1 (UniProt P22148)
T1 sequence: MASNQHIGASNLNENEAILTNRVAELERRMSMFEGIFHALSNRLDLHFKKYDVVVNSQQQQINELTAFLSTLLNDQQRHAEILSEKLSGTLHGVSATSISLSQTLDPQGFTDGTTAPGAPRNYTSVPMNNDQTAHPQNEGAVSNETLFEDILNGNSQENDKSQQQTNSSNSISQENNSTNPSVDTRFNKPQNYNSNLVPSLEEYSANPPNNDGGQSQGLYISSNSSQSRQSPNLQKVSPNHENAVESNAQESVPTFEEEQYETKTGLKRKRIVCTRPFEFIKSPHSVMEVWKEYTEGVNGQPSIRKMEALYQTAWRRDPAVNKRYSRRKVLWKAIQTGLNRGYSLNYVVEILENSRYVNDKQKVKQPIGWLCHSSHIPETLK
Assay: PBM E-score (8-mer binding enrichment) (E-score (-0.5 to 0.5)); higher = stronger / more preferred TF binding; most listed sequences are background and not binding sites
Settings: protein concentration: 200 nM; construct: GST-full length
Procedure, shortened: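 E-scores (a modified Wilcoxon-Mann-Whitney statistic) were assigned by the Universal PBM Analysis Suite to every ungapped eight-base word pooled with its reverse complement. The input came from universal all-10-mer Agilent arrays made double-stranded by primer extension and probed with GST-tagged yeast transcription factors at about 100-200 nM. Fluorescent anti-GST detected bound protein, and masliner normalised the scans.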

Sequence | PBM E-score
AGTGGGTG | -0.0455
AACCCTGG | -0.207
AAATTCAA | 0.255
ACACTACT | 0.101
CGAATCCC | -0.0406
CATCCTAA | 0.139
ACACAAGC | 0.0155
TGACTTAA | 0.071
ACTGCCAG | 0.0417
GGTCTTAA | -0.174
AACACGTG | 0.105
ATACCCAT | -0.0499
CTTTGTAC | 0.322
TCTTGAAA | 0.194
CTAGGCCA | -0.129
GAGAATAC | 0.151
CATGACAA | 0.383
CAGCCAGG | -0.216
CCTCTAGC | -0.169
ACGCCATA | -0.00323
CCGCATGA | -0.101
AAGCCGCG | 0.0745
CCCCGTCC | -0.379
AATGGACC | 0.0605
ATAGTATC | 0.119

Sequence | PBM E-score
AGCAAGTA | 0.0366
ACCTGATG | -0.0993
AAAACGCA | 0.0199
ACATTTGC | 0.258
ACAGAATG | 0.0899
GGCCGCTA | -0.127
ACAACCCG | 0.0775
AATTCGGG | 0.0723
AAAGCCAG | -0.0679
AGGGTTAA | -0.17
CTGAGGAA | -0.159
CTGCTATC | 0.0175
GGTCTTGA | -0.084
GACTTGGA | -0.0767
CGGTCTGC | -0.139
AATTCCAT | 0.216
CGACGAAA | 0.115
GATAACCC | -0.0931
ATTGTCCC | 0.462
ACCCGGTG | -0.27
CAAATGGC | 0.173
ACGATGAA | 0.0016
CGTTGGAC | 0.0323
ACGGTGGC | -0.149
AAAGAAGA | -0.0588

Sequence | PBM E-score
AACGCAGG | -0.221
CCGGTATC | -0.217
CTATCGAA | 0.0197
AACCACCG | 0.0326
ACGCGGAA | 0.047
GTACTTCA | 0.165
ACCGTAGA | -0.0668
AAGGGCGG | -0.21
CGTACACG | 0.152
AGCACTCA | -0.193
GACATTTA | 0.474
CATCATCA | -0.01
CATCTCAG | 0.00542
CATGCAAA | 0.0263
ACGACACC | 0.0705
CAGCTGCG | -0.143
CCAACCTA | -0.201
CATAACAC | -0.0452
CACCATAG | -0.153
GGCCAAAA | 0.00072
AGATGCGG | -0.0218
ATGTATAG | 0.0462
ATTGCCTA | -0.131
CGCGTCCC | 0.0219
CTGCGTCA | -0.00884

Sequence | PBM E-score
CACCGGCA | 0.0669
AGTTCGTC | 0.0758
AGTAATTG | 0.0742
GTTAAGGA | 0.0664
ACTGGGCT | -0.198
CTTGCCTA | -0.0484
AGACTGAC | -0.0742
ACGAGATC | 0.0399
GCACGCGC | -0.132
AGGCTTCG | -0.0579
GATCTTAA | 0.0914
ACGCTCCG | -0.131
GACACGTC | 0.295
CTTCAAGA | 0.162
GATCTTAC | 0.00117
GATATTAA | 0.0435
AGCGAGCG | 0.00381
GCTGAAGC | -0.105
AAGCTCAA | 0.141
CTCTCTTC | -0.18
AACTTTAG | 0.0922
AGGCGGAC | -0.027
CGACATGC | 0.218
AGTTACGA | 0.0116
AATACACG | -0.187

Sequence | PBM E-score
AGCCCTCC | -0.266
CGAGGCGA | 0.0443
CTTTCGGA | 0.155
GAGCATTA | -0.0317
AGGAACGC | -0.109
ACTACGGG | -0.199
GCCTGAGC | -0.0799
ACGTGCAC | -0.0179
ATGGGGGG | -0.334
GTGGCAAA | -0.106
ATCTCCTA | -0.178
CTGAGCCC | -0.23
CTCTCTAA | -0.211
ACTACACC | -0.0282
CAATAGAA | -0.0696
AGGTCTCC | -0.214
ACCCGATC | -0.157
AAGTGCAG | -0.0771
CACCTAGG | -0.044
CTAGCATC | -0.0427
ACAACTGT | 0.242
AAGAGCTC | -0.0373
CGGGACGC | -0.139
AAGAGGGT | -0.12
AGTCAATC | -0.0255

Sequence | PBM E-score
AATTTGGG | 0.206
ACTGCGAG | -0.107
AGTGCCTA | -0.0351
AACTCGAC | 0.0464
AGAGCGCA | -0.153
ATCCCAAT | 0.109
CTTGAACC | 0.0161
AATATATT | 0.279
GACAGCCA | -0.0329
TCACAGAA | 0.0869
ACATCACC | 0.0134
CCATAAAA | 0.157
ACAATATG | 0.205
CACTTACG | -0.00802
AACGCCTG | 0.043
CGCTGAAC | -0.082
GCCAGTGA | -0.225
ATCCCTTC | -0.042
ACTCTCCA | -0.0814
AACGACGC | 0.0174
CAACCCGC | -0.0999
CGCCCAAA | -0.031
AGTCGCAC | -0.21
AATTCTTG | 0.127
CGATTCCC | -0.135

Sequence | PBM E-score
AGTGAGTG | -0.164
CTATACTC | -0.141
AGCCGCCC | -0.258
CTCGCGGC | -0.0921
CCGAACAG | 0.0877
CGTGTAGC | -0.174
GATGAATC | 0.0368
ACTCTAAC | -0.0496
ACAAAATA | 0.188
CCGTAGTA | -0.0505
GGCTTCAA | -0.241
GCTGAACA | 0.00499
ATACTGAT | 0.1
CCTCGAAG | 0.0737
AGGTTATA | 0.103
ATAAAGTC | 0.305
AGAAGGCT | -0.314
GGGAGTGA | -0.244
CTAACCAA | -0.0293
CCTGACCC | -0.0936
CAGCGCTA | -0.0965
TACGGTAA | -0.052
